Results as given in PMC9911399, “Two distinct binding modes provide the RNA-binding protein RbFox with extraordinary sequence specificity”.
Residue numbers refer to the chain shown, from its start. The list shows a part of the results.

T1: RBFOX1 RRM (Homo sapiens, UniProt Q9NWB1 109-208)
T1 sequence: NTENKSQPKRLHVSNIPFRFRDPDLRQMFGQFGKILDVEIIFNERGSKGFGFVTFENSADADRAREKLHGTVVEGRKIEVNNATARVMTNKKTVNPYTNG

B1: UCUUGGA (DNA:RNA)
RNA: GGGAGACCGGAAUUCAGAUUGUCCUCUUGGAUUAAAUCCCGUCGUAGCCACCA
DNA 1: CAATCTGAATTCCGGTCTCCC
DNA 2: TGGTGGCTACGACGGGATT
B2: UGACAAC (DNA:RNA)
RNA: B1 RNA with C26G, U27A, U28C, G29A, G30A, A31C
DNA 1: CAATCTGAATTCCGGTCTCCC
DNA 2: TGGTGGCTACGACGGGATT
B3: GACUGAA (DNA:RNA)
RNA: B1 RNA with U25G, C26A, U27C, G30A
DNA 1: CAATCTGAATTCCGGTCTCCC
DNA 2: TGGTGGCTACGACGGGATT
B4: AAGUUUG (DNA:RNA)
RNA: B1 RNA with U25A, C26A, U27G, G29U, G30U, A31G
DNA 1: CAATCTGAATTCCGGTCTCCC
DNA 2: TGGTGGCTACGACGGGATT
B5: AAGUCCA (DNA:RNA)
RNA: B1 RNA with U25A, C26A, U27G, G29C, G30C
DNA 1: CAATCTGAATTCCGGTCTCCC
DNA 2: TGGTGGCTACGACGGGATT
B6: AAUUCUU (DNA:RNA)
RNA: B1 RNA with U25A, C26A, G29C, G30U, A31U
DNA 1: CAATCTGAATTCCGGTCTCCC
DNA 2: TGGTGGCTACGACGGGATT
B7: AUAGAGC (DNA:RNA)
RNA: B1 RNA with U25A, C26U, U27A, U28G, G29A, A31C
DNA 1: CAATCTGAATTCCGGTCTCCC
DNA 2: TGGTGGCTACGACGGGATT
B8: GUACACG (DNA:RNA)
RNA: GGGAGACCGGAAUUCAGAUUGUCCGUACACGUUAAAUCCCGUCGUAGCCACCA
DNA 1: CAATCTGAATTCCGGTCTCCC
DNA 2: TGGTGGCTACGACGGGATT
B9: UUGAUGA (DNA:RNA)
RNA: B1 RNA with C26U, U27G, U28A, G29U
DNA 1: CAATCTGAATTCCGGTCTCCC
DNA 2: TGGTGGCTACGACGGGATT
B10: AACACCU (DNA:RNA)
RNA: B8 RNA with G25A, U26A, A27C, C28A, A29C, G31U
DNA 1: CAATCTGAATTCCGGTCTCCC
DNA 2: TGGTGGCTACGACGGGATT
B11: AGUAUAA (DNA:RNA)
RNA: B1 RNA with U25A, C26G, U28A, G29U, G30A
DNA 1: CAATCTGAATTCCGGTCTCCC
DNA 2: TGGTGGCTACGACGGGATT
B12: UUGUCUU (DNA:RNA)
RNA: B1 RNA with C26U, U27G, G29C, G30U, A31U
DNA 1: CAATCTGAATTCCGGTCTCCC
DNA 2: TGGTGGCTACGACGGGATT
B13: CACGAGG (DNA:RNA)
RNA: B8 RNA with G25C, U26A, A27C, C28G, C30G
DNA 1: CAATCTGAATTCCGGTCTCCC
DNA 2: TGGTGGCTACGACGGGATT
B14: AUACUUA (DNA:RNA)
RNA: B8 RNA with G25A, A29U, C30U, G31A
DNA 1: CAATCTGAATTCCGGTCTCCC
DNA 2: TGGTGGCTACGACGGGATT
B15: CGUCCAU (DNA:RNA)
RNA: B8 RNA with G25C, U26G, A27U, A29C, C30A, G31U
DNA 1: CAATCTGAATTCCGGTCTCCC
DNA 2: TGGTGGCTACGACGGGATT
B16: AUGAGAG (DNA:RNA)
RNA: B8 RNA with G25A, A27G, C28A, A29G, C30A
DNA 1: CAATCTGAATTCCGGTCTCCC
DNA 2: TGGTGGCTACGACGGGATT
B17: AAUGAUU (DNA:RNA)
RNA: B8 RNA with G25A, U26A, A27U, C28G, C30U, G31U
DNA 1: CAATCTGAATTCCGGTCTCCC
DNA 2: TGGTGGCTACGACGGGATT
B18: UUAUCUA (DNA:RNA)
RNA: B1 RNA with C26U, U27A, G29C, G30U
DNA 1: CAATCTGAATTCCGGTCTCCC
DNA 2: TGGTGGCTACGACGGGATT
B19: UUGUAGC (DNA:RNA)
RNA: B1 RNA with C26U, U27G, G29A, A31C
DNA 1: CAATCTGAATTCCGGTCTCCC
DNA 2: TGGTGGCTACGACGGGATT
B20: CAUCGCC (DNA:RNA)
RNA: B8 RNA with G25C, U26A, A27U, A29G, G31C
DNA 1: CAATCTGAATTCCGGTCTCCC
DNA 2: TGGTGGCTACGACGGGATT
B21: AUGCCAG (DNA:RNA)
RNA: B8 RNA with G25A, A27G, A29C, C30A
DNA 1: CAATCTGAATTCCGGTCTCCC
DNA 2: TGGTGGCTACGACGGGATT
B22: GAGGUGC (DNA:RNA)
RNA: B8 RNA with U26A, A27G, C28G, A29U, C30G, G31C
DNA 1: CAATCTGAATTCCGGTCTCCC
DNA 2: TGGTGGCTACGACGGGATT
B23: GGAGUUA (DNA:RNA)
RNA: B8 RNA with U26G, C28G, A29U, C30U, G31A
DNA 1: CAATCTGAATTCCGGTCTCCC
DNA 2: TGGTGGCTACGACGGGATT
B24: AUCACAC (DNA:RNA)
RNA: B8 RNA with G25A, A27C, C28A, A29C, C30A, G31C
DNA 1: CAATCTGAATTCCGGTCTCCC
DNA 2: TGGTGGCTACGACGGGATT
B25: UGUGACC (DNA:RNA)
RNA: B8 RNA with G25U, U26G, A27U, C28G, G31C
DNA 1: CAATCTGAATTCCGGTCTCCC
DNA 2: TGGTGGCTACGACGGGATT
B26: CUUCACU (DNA:RNA)
RNA: B8 RNA with G25C, A27U, G31U
DNA 1: CAATCTGAATTCCGGTCTCCC
DNA 2: TGGTGGCTACGACGGGATT
B27: CCGAAAG (DNA:RNA)
RNA: B8 RNA with G25C, U26C, A27G, C28A, C30A
DNA 1: CAATCTGAATTCCGGTCTCCC
DNA 2: TGGTGGCTACGACGGGATT
B28: AUAGUGA (DNA:RNA)
RNA: B8 RNA with G25A, C28G, A29U, C30G, G31A
DNA 1: CAATCTGAATTCCGGTCTCCC
DNA 2: TGGTGGCTACGACGGGATT
B29: GUGAUAU (DNA:RNA)
RNA: B8 RNA with A27G, C28A, A29U, C30A, G31U
DNA 1: CAATCTGAATTCCGGTCTCCC
DNA 2: TGGTGGCTACGACGGGATT
B30: UCUGUCA (DNA:RNA)
RNA: B1 RNA with U28G, G29U, G30C
DNA 1: CAATCTGAATTCCGGTCTCCC
DNA 2: TGGTGGCTACGACGGGATT
B31: AAAAUAU (DNA:RNA)
RNA: B8 RNA with G25A, U26A, C28A, A29U, C30A, G31U
DNA 1: CAATCTGAATTCCGGTCTCCC
DNA 2: TGGTGGCTACGACGGGATT

These binders were tested against T1, RBFOX1 RRM (assay: EMSA; HiTS-Eq, 1 nM pool, 10 min; buffer printed only for the single-RNA assays: 10 mM Tris pH 7.5, 150 mM NaCl, 3.4 mM EDTA, 0.001% NP-40, 30 C). Conditions: tags: His6 N-terminal (pET28a); label: 5' 32P.
Procedure, shortened: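 Relative association constants, normalised to the cognate motif, were derived by comparing read counts of each RNA species with those of the control reaction. The RNA sequenced was the free fraction, separated by 8% native PAGE after a 10 min equilibration in 50 µL of 1 nM 5′-radiolabelled RNA (7 randomized nucleotides) with increasing concentrations of purified wild-type or mutant RbFox RRM.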

Row | Binder | binding signal
1 | B1 | 0.00408 KA relative to UGCAUGU
2 | B2 | 0.00863 KA relative to UGCAUGU
3 | B3 | 0.0274 KA relative to UGCAUGU
4 | B4 | 0.0158 KA relative to UGCAUGU
5 | B5 | 0.00199 KA relative to UGCAUGU
6 | B6 | 0.00253 KA relative to UGCAUGU
7 | B7 | 0.00439 KA relative to UGCAUGU
8 | B8 | 0.00796 KA relative to UGCAUGU
9 | B9 | 0.0228 KA relative to UGCAUGU
10 | B10 | 0.00106 KA relative to UGCAUGU
11 | B11 | 0.00197 KA relative to UGCAUGU
12 | B12 | 0.0176 KA relative to UGCAUGU
13 | B13 | 0.00799 KA relative to UGCAUGU
14 | B14 | 0.00244 KA relative to UGCAUGU
15 | B15 | 0.00234 KA relative to UGCAUGU
16 | B16 | 0.0123 KA relative to UGCAUGU

Row | Binder | binding signal
17 | B17 | 0.00668 KA relative to UGCAUGU
18 | B18 | 0.00293 KA relative to UGCAUGU
19 | B19 | 0.0171 KA relative to UGCAUGU
20 | B20 | 0.0124 KA relative to UGCAUGU
21 | B21 | 0.00872 KA relative to UGCAUGU
22 | B22 | 0.023 KA relative to UGCAUGU
23 | B23 | 0.0106 KA relative to UGCAUGU
24 | B24 | 0.00092 KA relative to UGCAUGU
25 | B25 | 0.0155 KA relative to UGCAUGU
26 | B26 | 0.00478 KA relative to UGCAUGU
27 | B27 | 0.00968 KA relative to UGCAUGU
28 | B28 | 0.00737 KA relative to UGCAUGU
29 | B29 | 0.00897 KA relative to UGCAUGU
30 | B30 | 0.0106 KA relative to UGCAUGU
31 | B31 | 0.00193 KA relative to UGCAUGU
